Measured values as given in PubChem BioAssay AID504832 (National Center for Advancing Translational Sciences (NCATS), 2011).
The whole screen tested about 310,000 compounds, of which about 18,000 (5.8%) were called active. Inconclusive means that the source gave no clear call. Such entries were picked first, then a sample of the others. Calls come from the whole dose curve; as a rule, active = well fitted inhibition curve with a large enough effect; inconclusive = small, poorly fitted or top-dose-only effect, or another doubt; inactive = no such curve, though single readings can be large or run the other way. No potency is given beside an inconclusive call; the fits are too rough.

Assay: Primary qHTS for delayed death inhibitors of the malarial parasite plastid, 48 hour incubation
Conditions: P. falciparum luciferase growth in erythrocytes; series mostly up to 28.7 µM; activity change, negative = inhibition: at the top concentration
In short: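 A one-generation exposure of luciferase-tagged malaria parasites in RPMI 1640/Albumax erythrocyte culture, 37 C and 5% CO2. Inhibition is inferred from decreased luminescence after adding detection reagent.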
% is set by controls: 0 for no effect and ±100 for the full control effect; potency is the fitted concentration of half-maximal effect; tags give direction and shape of the fitted curve.

Row | Structure (SMILES) | Potency | activity change, negative = inhibition
1 | COc1cccc(/C=N/NC(=O)N/N=C/c2cccc(OC)c2O)c1O | inconclusive [inhibitor, single point] | 
2 | CC(C)(C)OC(=O)N1C[C@H](O)C[C@H]1C(=O)OCC(=O)c1ccc([N+](=O)[O-])cc1 |  | inactive: 42.8%
3 | CC(=O)c1cc(-c2ccc(F)cc2)n(CCC(=O)Nc2cccc(C)n2)c1C |  | inactive: -5.31%
4 | Cn1c2ccccc2c2cnn(CC(=O)Nc3ccc(F)cc3F)c(=O)c21 | inconclusive [inhibitor, single point] | 
5 | O=C(Nc1nnc(-c2ccccc2)o1)NC1CCCCC1 | active: 11.7 µM | 
6 | Cc1cccc(N(CC(=O)N2CCN(c3ccccc3F)CC2)S(C)(=O)=O)c1 | inconclusive [inhibitor, partial curve, poor fit] | 
7 | Cc1cccc(COCC(Cc2ccccc2)N2CCN(C(=O)c3cccc(C)c3)CCC2=O)c1 (configuration not stated) | active: 13.1 µM | 
8 | COc1ccccc1/C=C/CN1CCC(Oc2ccc(C(=O)N3CCCCC3)cc2)CC1 | active: 7.38 µM | 
9 | O=C(CCc1nnc(CCCCc2ccccc2)o1)NC1CCCC1 |  | inactive: -16.4%
10 | O=C(Nc1n[nH]c(=S)s1)c1ccc2ccccc2c1 |  | inactive: 156%
11 | COc1cccc(NC(=O)Cn2cnc3sc(C)c(S(=O)(=O)N4CCCCC4)c3c2=O)c1 | inconclusive [inhibitor, single point] | 
12 | COc1ccc(Cl)cc1S(=O)(=O)N1CCN(Cc2ccc3c(c2)OCO3)CC1 | inconclusive [inhibitor, partial curve, poor fit] | 
13 | CCCNC(=O)CCCCn1c(=S)[nH]c2c([nH]c3ccc(OC)cc32)c1=O |  | inactive: 198%
14 | COc1ccc(C(=O)NN(C)c2nc(-c3ccccc3)cc(C)c2S(C)(=O)=O)cc1 | inconclusive [inhibitor, single point] | 
15 | Cc1ccc(O)c(NC2=C(Cl)C(=O)N(Cc3ccccc3)C2=O)c1 | active: 11.7 µM | 
16 | N#Cc1nc(-c2ccc(OCc3ccccc3)cc2)oc1NCc1cccnc1 | inconclusive [inhibitor, partial curve, poor fit] | 
17 | Cc1ccc(CNC(=O)CCC(=O)n2ncc3cc(C)ccc32)cc1 | inconclusive [inhibitor, full curve, poor fit] | 
18 | CCCCN(C)C(=O)C1CCN(c2ccc(S(=O)(=O)N3CCOCC3)cc2[N+](=O)[O-])CC1 | inconclusive [inhibitor, single point] | 
19 | COCCn1c(=S)[nH]c2cc(C(=O)N3CC(C)CC(C)C3)ccc2c1=O (configuration not stated) |  | inactive: 5.67%
20 | CN(C(=O)CSc1nnc(C2CC2)n1-c1ccccc1)C1CCS(=O)(=O)C1 (configuration not stated) |  | inactive: 17.4%
21 | Nc1cccc(CCc2ccncc2)c1 | inconclusive [inhibitor, full curve, poor fit] | 
22 | COc1cccc(OC)c1OCCCOc1cccc2cccnc12 | inconclusive [inhibitor, single point] | 
23 | CCOC(=O)c1c(C)nc2sc3c(c2c1-c1ccc(OC)cc1)NC(c1ccc(OC)cc1)NC3=O (configuration not stated) | inconclusive [inhibitor, single point] | 
24 | CC(C)Cc1ccc(/C=C/C(=O)NC2CC2)cc1 | inconclusive [inhibitor, partial curve, poor fit] | 

Row | Structure (SMILES) | Potency | activity change, negative = inhibition
25 | CCNC(=O)c1cccc(NC(=O)c2cc(C3CC3)nc3c2cnn3C(C)C)c1 | inconclusive [inhibitor, single point] | 
26 | O=C(CSc1ccc2nnc(-c3ccc(F)cc3)n2n1)N1CCCc2ccccc21 | inconclusive [inhibitor, single point] | 
27 | O=C1c2ccccc2C(=O)N1c1nc(-c2cccs2)cs1 |  | inactive: 49.7%
28 | NC(=O)C1CCN(C(=O)C2c3ccccc3C(=O)N3CCc4ccccc4C23)CC1 (configuration not stated) |  | inactive: -2.32%
29 | COc1ccc(OCCNC(=O)c2ccccc2OCC(=O)N2CCCCC2)cc1 | inconclusive [inhibitor, partial curve, poor fit] | 
30 | N#Cc1ccc(C(=O)OCC(=O)N2CCCCCC2)cc1 |  | inactive: 1.76%
31 | C/C(=C\C(=O)OCC(=O)NCc1ccccc1)C(=O)OCC(=O)NCc1ccccc1 |  | inactive: -5.88%
32 | CCc1ccc(C(=O)COC(=O)C(CCSC)NC(=O)c2ccccc2)cc1 (configuration not stated) |  | inactive: 10.6%
33 | COc1c(C)c2c(c(O)c1C/C=C(\C)CCC(=O)O)C(=O)OC2 | active: 2.56 µM | 
34 | C(=N\Nc1nc(-c2cccnc2)nc2ccccc12)/c1ccccc1 | inconclusive [inhibitor, single point] | 
35 | CCC(=O)Nc1ccc(C2C(=O)c3ccccc3C2=O)cc1 |  | inactive: 39.4%
36 | Cc1cccc(NC(=O)CCC2CCN(C(=O)c3ccc(C)s3)CC2)c1 | inconclusive [inhibitor, single point] | 
37 | O=C(O)c1cc(S(=O)(=O)NC(Cc2c[nH]c3ccccc23)C(=O)O)ccc1Cl (configuration not stated) |  | inactive: 0%
38 | COc1ccc2oc(C(=O)OCC(=O)N(C)c3c(N)n(Cc4ccccc4)c(=O)[nH]c3=O)c(C)c2c1 | inconclusive [inhibitor, single point] | 
39 | COC(=O)C1=C(C)NC(C)=C(C(=O)OCC2CCCO2)C1c1cccc(Br)c1 (configuration not stated) | active: 9.28 µM | 
40 | O=C(Cc1ccc2c(c1)CCCC2)Nc1ccccc1Cl | active: 11.7 µM | 
41 | CC(=O)N1CCN(S(=O)(=O)c2cccc(C(=O)N(Cc3ccccc3)c3ccc(C)cc3)c2)CC1 | active: 5.86 µM | 
42 | Cc1cn2c(nc1=O)OC1CC2OC1CO (configuration not stated) |  | inactive: 7.07%
43 | Cc1ccc(S(=O)(=O)Nc2ccc(C(=O)NCc3cccnc3)cc2)cc1 |  | inactive: 3.39%
44 | Cc1ccnc(SCC(=O)Nc2sc3c(c2C#N)CCCC3)n1 | inconclusive [inhibitor, partial curve] | 
45 | Cc1ccn(CC(=O)NC2CC(C)(C)Cc3c2cnn3-c2ccc(F)cc2)n1 (configuration not stated) |  | inactive: -0.89%
46 | Cc1cccc(NC(=O)CN(c2ccc(F)cc2)S(C)(=O)=O)c1 | inconclusive [inhibitor, full curve, poor fit] | 
47 | O=C(CCCn1c(=S)[nH]c2cc3c(cc2c1=O)OCO3)N1CCN(C2CCCCC2)CC1 | inconclusive [inhibitor, single point] | 
48 | COC(=O)Cc1c(C)c2ccc(OC(=O)c3ccccc3)cc2oc1=O | inconclusive [inhibitor, partial curve] | 

Row | Structure (SMILES) | Potency | activity change, negative = inhibition
49 | COc1ccccc1NC(=O)CSc1nc2ccccc2c(=O)n1CC1CCCO1 (configuration not stated) | inconclusive [inhibitor, single point] | 
50 | O=C(O)c1ccc2c(=O)n3cc(C(=O)c4ccccc4O)cc(Cl)c3nc2c1 |  | inactive: -6.49%
51 | CCCN1CCN(CCCNC(=O)C2CCN(c3nnc(-n4cccc4)s3)CC2)CC1 | inconclusive [inhibitor, single point] | 
52 | O=C1CC(=Nc2ccccc2)NN1c1ccccc1 | inconclusive [inhibitor, partial curve, poor fit] | 
53 | COc1ccccc1NC(=O)CSc1nnc(C2CCCCC2)n1C | inconclusive [inhibitor, partial curve, poor fit] | 
54 | Cc1ccc(S(=O)(=O)NC(=O)Nc2ccc(N(C)C)cc2)cc1 | active: 0.738 µM | 
55 | CCOc1cc(CNc2ccccc2)cc(Br)c1OCc1ccccc1F | inconclusive [inhibitor, single point] | 
56 | CN=c1scc(-c2c[nH]c3ccccc23)n1C | inconclusive [inhibitor, full curve, poor fit] | 
57 | O=c1c2ccccc2nc(/C=C/c2ccc([N+](=O)[O-])o2)n1CCCO | inconclusive [inhibitor, full curve] | 
58 | Cc1ncsc1CCOC(=O)c1ccccc1 |  | inactive: 128%
59 | COc1ccccc1NS(=O)(=O)c1cccc(C(=O)NCC(C)(C)N2CCOCC2)c1 | inconclusive [inhibitor, partial curve, poor fit] | 
60 | CCc1ccc(N(C(=O)c2csnn2)C(C(=O)NC(C)(C)C)c2cccnc2)cc1 (configuration not stated) | inconclusive [inhibitor, single point] | 
61 | Cc1ccc(CN2C(=O)CSC2c2cccnc2)cc1 (configuration not stated) | inconclusive [inhibitor, single point] | 
62 | C=CCNC(=S)/N=c1/ccccn1CC |  | inactive: 5.79%
63 | COc1ccc(N(CC(=O)NCCOc2ccccc2)S(=O)(=O)c2ccc(C)cc2)cc1 | inconclusive [inhibitor, single point] | 
64 | O=C(CSc1nnc2ccccn12)Nc1ccc(S(=O)(=O)N2CCOCC2)cc1 |  | inactive: -1.64%
65 | Cc1nc(C(=O)NNC(=O)c2c(-c3c(Cl)cccc3Cl)noc2C)cs1 | inconclusive [inhibitor, single point] | 
66 | CCCc1nnc(NC(=O)C2CCN(C(=O)c3ccco3)CC2)s1 | inconclusive [inhibitor, partial curve, poor fit] | 
67 | O=C(CCNC(=O)c1ccccc1Cl)Nc1cccc(S(=O)(=O)N2CCCC2)c1 | inconclusive [inhibitor, single point] | 
68 | CCOC(=O)Cc1csc(NC(=O)c2ccc(N3CCOCC3)cc2[N+](=O)[O-])n1 |  | inactive: 7.58%
69 | Cc1ccc(CCNC(=O)c2sc3nc4n(c(=O)c3c2C)CCC4)cc1 |  | inactive: 3.96%
70 | O=C(OCC(=O)N1CCc2ccccc21)c1nc(Cl)ccc1Cl |  | inactive: 6.29%
71 | COc1ccc(Cl)cc1C(=O)OCC(=O)Nc1cccnc1Cl | inconclusive [inhibitor, partial curve] | 
72 | COc1ccc(/C=C/c2c([N+](=O)[O-])c(=O)n(C)c(=O)n2C)c(OC)c1OC | inconclusive [inhibitor, single point] | 
